Reference: PubChem BioAssay AID588591 (National Center for Advancing Translational Sciences (NCATS), 2011)
Hit rate of the full screen: of about 390,000 compounds, about 4,700 (1.2%) were called active. Inconclusive means that the source gave no clear call. Such entries were picked first, then a sample of the others. Calls follow the shape of the dose curve; as a rule, active = well fitted inhibition curve with a large enough effect; inconclusive = small, poorly fitted or top-dose-only effect, or another doubt; inactive = no such curve, though single readings can be large or run the other way. A potency beside an inconclusive call is a rough fit, not a confirmed value.

biological target: DNA polymerase eta (Homo sapiens) (UniProt Q9Y253); experiment: qHTS for Inhibitors of Polymerase Eta; details: recombinant Pol eta, fluorescent DNA replication assay; series mostly up to 114 µM; activity change, negative = inhibition: at the top concentration
Outline: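 Pol eta (10 nM) was preincubated with compounds for 15 min at room temperature, after which fluorescent replication substrate (50 nM final) was added to start the reaction. Fluorescence was read kinetically at 0 and 10 min.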
% is scaled to controls: 0 for no effect and ±100 for the full control effect; potency is read from the fitted curve at half-maximal effect; tags tell the direction and shape of the fitted curve.

Chain of UniProt Q9Y253 (Q9Y253 whole entry, looked up): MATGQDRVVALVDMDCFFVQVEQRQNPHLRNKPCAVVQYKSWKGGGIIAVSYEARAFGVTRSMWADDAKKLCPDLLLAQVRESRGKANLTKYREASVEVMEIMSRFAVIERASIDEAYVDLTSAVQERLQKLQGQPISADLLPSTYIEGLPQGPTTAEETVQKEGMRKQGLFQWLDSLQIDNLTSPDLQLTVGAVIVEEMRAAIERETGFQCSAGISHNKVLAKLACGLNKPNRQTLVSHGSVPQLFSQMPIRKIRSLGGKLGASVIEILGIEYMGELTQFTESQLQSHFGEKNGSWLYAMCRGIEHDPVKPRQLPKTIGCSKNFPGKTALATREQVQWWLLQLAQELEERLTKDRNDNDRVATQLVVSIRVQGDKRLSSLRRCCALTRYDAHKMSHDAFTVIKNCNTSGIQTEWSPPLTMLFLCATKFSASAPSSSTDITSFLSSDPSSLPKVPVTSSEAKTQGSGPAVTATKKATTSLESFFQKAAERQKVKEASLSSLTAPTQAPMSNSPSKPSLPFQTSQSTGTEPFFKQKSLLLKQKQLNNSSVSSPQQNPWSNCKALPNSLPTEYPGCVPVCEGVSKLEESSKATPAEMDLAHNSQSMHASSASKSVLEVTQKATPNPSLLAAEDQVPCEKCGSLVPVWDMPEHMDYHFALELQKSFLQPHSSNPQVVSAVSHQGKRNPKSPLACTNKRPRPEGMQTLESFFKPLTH

Compound | Potency | activity change, negative = inhibition
Cc1ccc(C(=O)Nc2nc(-c3cc(Cl)sc3Cl)cs2)cc1 | inconclusive: 11.2 µM [inhibitor, full curve, poor fit] | 
Cc1cc(C=C2C(=O)CCCC2=O)c(C)n1-c1ccccc1 | active: 17.8 µM | 
COc1ccc(S(=O)(=O)N2CCN(C(=O)c3cc4c(s3)CCC4)CC2)cc1 | active: 2.24 µM | 
CCOc1ccc(/C=C/c2[nH]c(=O)[nH]c(=O)c2[N+](=O)[O-])cc1 | inconclusive: 12.6 µM [inhibitor, partial curve, poor fit] | 
CCOC(=O)/C(C)=C1\NC(C)(C)Cc2ccccc21 |  | inactive: -1.57%
O=C(CSc1c2c(nc3cc(Cl)ccc13)CCCC2)NCc1ccco1 | inconclusive: 31.6 µM [inhibitor, single point] | 
O=C(N/N=C/c1ccco1)c1cc(Br)ccc1OCc1ccccc1 |  | inactive: 1.25%
COC(=O)C1=COC(OC2OC(CO)C(O)C(O)C2O)C2C1C=CC2(O)CO (centres undefined) | active: 17.8 µM | 
CC(C)N(C(=O)[C@H]1C[C@H](CC(=O)NCc2cccc(C(F)(F)F)c2)C(=O)N2CCc3c([nH]c4ccc(Cl)cc34)[C@]12C)C(C)C | inconclusive: 56.2 µM [inhibitor, partial curve, poor fit] | 
CCOC(=O)C1=C(O)/C(=C/c2ccc(CNC(=O)C(=O)Nc3ccc(C)cc3)o2)N=C1C | inconclusive: 14.1 µM [inhibitor, partial curve, poor fit] | 
CCCCCCN1C[C@H](n2cc(COC(=O)c3ccccc3)nn2)[C@@H](O)C[C@@H]1c1ccc(Cl)cc1 | inconclusive: 63.1 µM [inhibitor, partial curve, poor fit] | 
Cc1ccccc1N=C1SC(CC(=O)Nc2ccc3ccccc3c2)C(=O)N1Cc1ccccn1 (centres undefined) | inconclusive: 89.1 µM [inhibitor, partial curve, poor fit] | 
Cc1ccc(CN2CC(C(=O)Nc3ccc4c(C)cc(=O)oc4c3)CC2=O)cc1 (centres undefined) | inconclusive: 35.5 µM [inhibitor, partial curve, poor fit] | 
Cc1cc(NC(=O)C2CCCC2)nc2c1c(=O)oc1ccccc12 | inconclusive: 25.1 µM [inhibitor, single point] | 
O=C(CSc1nc2c(cnn2-c2ccccc2)c(=O)[nH]1)c1ccc(Cl)cc1 | inconclusive: 100 µM [inhibitor, partial curve, poor fit] | 
O=C(CSc1ccc2ccccc2c1)Nc1ccc(S(=O)(=O)Nc2nccs2)cc1 | inconclusive: 39.8 µM [inhibitor, single point] | 
Cc1cc(-c2ccccc2)nc2c(Br)c(C(=O)O)nn12 | active: 7.94 µM | 
CCCSc1nc(N2CCOCC2)c2c(c1C#N)CCCC2 | inconclusive: 39.8 µM [inhibitor, single point] | 
Cc1cccc([C@H]2[C@@H]3C=CCC[C@@H]3C(=O)N2Cc2ccccc2)c1 |  | inactive: -24.8%
COc1ccc(CC(=O)Nc2sc3c(c2C(=O)Nc2c(C)cccc2C)CCCCC3)cc1 |  | inactive: -0.532%
CCN(CCCNC(=O)c1cc2cc3ccc(OC)cc3nc2s1)c1ccccc1 | inconclusive: 79.4 µM [inhibitor, partial curve] | 
O=C(N/N=C/c1ccc(Cl)c([N+](=O)[O-])c1)c1ccc2c(c1)OCCO2 | inconclusive: 56.2 µM [inhibitor, partial curve, poor fit] | 

Compound | Potency | activity change, negative = inhibition
Oc1ccccc1C=NC1=NN(c2cccc(C(F)(F)F)c2)CC1 |  | inactive: -19.8%
CCc1ccc(NC(=O)c2ccc3c(c2)C(=O)N(Cc2ccco2)C3=O)cc1 | active: 20 µM | 
Brc1c(CSc2nc3ccccc3s2)nc2ncccn12 | inconclusive: 35.5 µM [inhibitor, single point] | 
COc1ccccc1NC(=O)CSc1nnc(-c2ccccn2)n1Cc1ccco1 | inconclusive: 39.8 µM [inhibitor, single point] | 
O=C(Nc1nc(-c2ccc(F)cc2)cs1)C1CCN(C(=O)c2ccc(F)cc2)CC1 | inconclusive: 100 µM [inhibitor, partial curve, poor fit] | 
CSCCC(NC(=O)COc1ccccc1)C(=O)N(C)Cc1cccc(F)c1 (centres undefined) | inconclusive: 100 µM [inhibitor, single point] | 
COc1cc(NC(=O)Cn2cc(S(=O)(=O)c3ccccc3)c(=O)c3ccccc32)cc(OC)c1 |  | inactive: -25%
CCCC(=O)N1CCN(c2ccc(NC(=S)NC(=O)c3cccc(C)c3)cc2)CC1 |  | inactive: -19.2%
COc1ccc(/C=C/C(=O)Nc2ccc3c(c2)OCCO3)cc1OC | inconclusive: 3.16 µM [inhibitor, partial curve, poor fit] | 
CC(C)(C)C1C/C(=C/c2ccccn2)C(=O)/C(=C/c2ccccn2)C1 (centres undefined) | inconclusive: 50.1 µM [inhibitor, full curve, poor fit] | 
O=C(CCCOc1ccccc1)Nc1cccc(S(=O)(=O)N2CCCCC2)c1 | inconclusive: 8.91 µM [inhibitor, full curve, poor fit] | 
Cc1c(C(=O)Nc2cccc([N+](=O)[O-])c2)cnn1-c1ccccc1 |  | inactive: -1.1%
Cc1ccc2nc(Cl)c(/C=N/NC(=O)c3ccccc3O)cc2c1 | inconclusive: 14.1 µM [inhibitor, partial curve, poor fit] | 
COc1ccc(-c2ccc(=O)n(CC(=O)NCc3ccco3)n2)cc1 | inconclusive: 20 µM [inhibitor, partial curve, poor fit] | 
OCC[C@@H]1C[C@@H](O)[C@H](O)[C@]2(CCCCO2)O1 |  | inactive: -17.4%
Cc1ccc(S(=O)(=O)N2CCCCC2)cc1NC(=O)C1CC(=O)N(Cc2ccco2)C1 (centres undefined) |  | inactive: -12.8%
O=C(Nc1cccc(S(=O)(=O)N2CCOCC2)c1)c1c2c(nc3ccccc13)CCC2 | inconclusive: 12.6 µM [inhibitor, full curve, poor fit] | 
Fc1ccc(CNc2nc(-c3ccccc3)cc(C(F)(F)F)n2)cc1 |  | inactive: -7.86%
CCN(CC)c1ccc(NC(=O)CSc2ccsc2[N+](=O)[O-])c(C)c1 | active: 44.7 µM | 
CCN1/C(=C\c2ccc3cc(C)ccc3[n+]2CC)Sc2cc(C)c(C)cc21 | inconclusive: 50.1 µM [inhibitor, partial curve, poor fit] | 
CN1CC=C2C(C#N)=C(N)C(C#N)(C#N)[C@H](c3ccoc3)[C@H]2C1 | inconclusive: 22.4 µM [inhibitor, single point] | 
COc1cccc(OCc2nc3ccccc3n2CCOc2cccc(C)c2)c1 | inconclusive: 56.2 µM [inhibitor, partial curve, poor fit] | 

Compound | Potency | activity change, negative = inhibition
Cc1cc(C(=O)CSc2nnc(Cc3ccccc3)o2)c(C)n1Cc1ccc2c(c1)OCO2 | inconclusive: 3.98 µM [inhibitor, full curve, poor fit] | 
O=C(Nc1ccc(S(=O)(=O)Nc2nccs2)cc1)c1cc(=O)[nH]c2ccccc12 | inconclusive: 56.2 µM [inhibitor, partial curve, poor fit] | 
CCN1CCN(c2nc(Nc3ccc(NC(C)=O)cc3)nc(Nc3ccc(NC(C)=O)cc3)n2)CC1 | inconclusive: 56.2 µM [inhibitor, partial curve] | 
CN(C(=O)Cn1c(=O)n(Cc2ccc(C(=O)NCc3ccc4c(c3)OCO4)cc2)c(=O)c2ccccc21)c1ccccc1 |  | inactive: -9.99%
Cc1cc(=O)[nH]c(N/N=C/c2c(O)n(-c3ccccc3)c(=O)c3ccccc23)n1 | active: 22.4 µM | 
COc1cc([N+](=O)[O-])ccc1NC(=S)NNC(=O)c1ccc2c(c1)OCO2 | inconclusive: 79.4 µM [inhibitor, partial curve] | 
CC1=C(C(=O)Nc2cccc(C(=O)N3CCN(c4cccc(C(F)(F)F)c4)CC3)c2)SCCO1 | inconclusive: 50.1 µM [inhibitor, partial curve, poor fit] | 
Cc1ccccc1Nc1nc(N)nc(COC(=O)c2ccc([N+](=O)[O-])o2)n1 | active: 89.1 µM | 
O=C(N/N=C\c1c(O)ccc2ccccc12)c1ccc(O)cc1 |  | inactive: -8.72%
Cc1cc(C)c2c(N)c(C(=O)Nc3ccccc3Cl)sc2n1 | inconclusive: 79.4 µM [inhibitor, single point] | 
O=C1CC(c2ccco2)CC(O)=C1C=Nc1ccc(Br)cc1 (centres undefined) | inconclusive: 39.8 µM [inhibitor, single point] | 
CCn1c(CSc2nc3ccccc3s2)nnc1SCC(=O)c1ccc(O)c(O)c1 | inconclusive: 56.2 µM [inhibitor, partial curve, poor fit] | 
CCOC(=O)C1(Cc2ccccc2C)CCCN(C(=O)c2ccc(CSC)o2)C1 (centres undefined) |  | inactive: 1.19%
CN(c1ccccc1)S(=O)(=O)c1cccc(NC(=O)COc2ccccc2)c1 | inconclusive: 56.2 µM [inhibitor, partial curve, poor fit] | 
CC(NC(=O)COC(=O)c1cc([N+](=O)[O-])ccc1N1CCOCC1)c1ccccc1 (centres undefined) |  | inactive: -21.3%
O=C(/C=C/c1ccc(OC(F)F)cc1)OCC(=O)N1CCN(C(=O)c2ccco2)CC1 | inconclusive: 31.6 µM [inhibitor, partial curve, poor fit] | 
COc1cc(/C=C2\C(=O)NN(c3ccccc3)C2=O)cc([N+](=O)[O-])c1O | active: 12.6 µM | 
CC1CC1C(=O)Nc1nc(-c2cccs2)c(-c2cccs2)s1 (centres undefined) | inconclusive: 14.1 µM [inhibitor, partial curve, poor fit] | 
COc1ccc(Br)cc1CC1C(=O)Nc2ccccc21 (centres undefined) |  | inactive: -10.2%
CCN(CC)c1ccc(NC(=O)CN2CCN(c3nc(C)cc(C)n3)CC2)cc1 | inconclusive: 89.1 µM [inhibitor, partial curve, poor fit] | 
